About 120 (0.25%) of roughly 48,000 compounds were called active. About 4% were inconclusive and are not listed. Calls come from the whole dose curve; as a rule, active = well fitted activation curve with a large enough effect; inconclusive = small, poorly fitted or top-dose-only effect, or another doubt; inactive = no such curve, though single readings can be large or run the other way. The list shows a part of the results.

The experiment is described as follows: Primary qHTS for Identification of Small Molecule Activators of Huntingtin-Antisense Promoter Activity. Note: nearly all actives have a fitted effect of over 55% in size. The note with it: HEK293 HTT-AS promoter firefly luciferase reporter, 24 h; series mostly up to 57.5 µM; activity change, positive = activation: at the top concentration. In a few lines:
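Quantitative HTS used concentration series of up to 57.5 uM final on HEK293 luciferase reporter cells, 24 h at 37 degrees C. Readout was Dual-Glo firefly luminescence.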
Consider `Cc1cnc(Nc2ccc(CN3CCOCC3)cc2)nc1Nc1cccc(S(=O)(=O)NC(C)(C)C)c1`, for which the “activity change, positive = activation” value is inactive: -45.4%. For `Cc1cc(C)c(NC(=O)Cn2c(=O)n(CC3CCCO3)c(=O)c3ccccc32)c(C)c1` (stereo not drawn), the “activity change, positive = activation” value was inactive: -16.8%. `Cc1cc2c(cc1NS(=O)(=O)c1ccc(NC(=O)CC(C)C)cc1)n(C)c(=O)c(=O)n2C`: the “activity change, positive = activation” value is inactive: -48.1%. With `CCOc1ccc(NC(=O)N(Cc2cn(CC)c3ccccc23)C2CCCCCC2)cc1`, the “activity change, positive = activation” value is inactive: -9.78%. The value for `Cc1cc(C)c(NC(=O)C2CCN(S(=O)(=O)c3c(C)noc3/C=C/c3ccccc3F)CC2)c(C)c1` was inactive: 15.8%; that for `COc1ccc(S(=O)(=O)c2c(Nc3ccc(C)cc3C)sc(C(=O)c3ccc(F)cc3)c2N)cc1` was inactive: -18.6%. As to `CN(C)c1ccc(C(CNC(=O)c2ccccc2Cl)N2CCCC2)cc1` (stereo not drawn), the “activity change, positive = activation” value was inactive: 1.97%. In the case of `Cc1nnsc1C(=O)Oc1ccc(Cl)cc1`, the “activity change, positive = activation” value is inactive: -10.5%. Take `CN1C(=O)Cc2cc(S(=O)(=O)NCc3ccc(Cl)cc3)ccc21`: the “activity change, positive = activation” value is inactive: -7.72%.

In the case of `O=C(NCc1ccccc1)C(=O)NCC(c1cccs1)S(=O)(=O)c1cccs1` (stereo not drawn), the “activity change, positive = activation” value was inactive: -20.6%. Turning to `O=C(CSc1nc2c([nH]c3ccccc32)c(=O)n1-c1cccc(Cl)c1)c1ccccc1`, the “activity change, positive = activation” value is inactive: -15.3%. Take `CCN1CCC(N(Cc2ccc3c(c2)OCO3)C(=O)Nc2cccc(C)c2C)CC1`: the “activity change, positive = activation” value was inactive: -6.46%.

As to `COc1ccc(Nc2ncc3c(n2)CCN(Cc2cccc(F)c2F)C3)c(OC)c1`, the “activity change, positive = activation” value was inactive: -3.33%. The value for `CC(=O)N1CCCc2cc(S(=O)(=O)NCc3ccccc3Cl)ccc21` was inactive: -27%; that for `Cc1ccc(C)c(NC(=O)c2cc(S(=O)(=O)N3CCN(c4cccc(Cl)c4)CC3)ccc2F)c1` was inactive: -22%; that for `CCN(Cc1ccccc1)C(=O)C1CCC(CNS(=O)(=O)c2ccc3c(c2)CCCC(=O)N3)CC1` (stereo not drawn) was inactive: -21.7%. With `CCc1ccc(Nc2nc3c(S(=O)(=O)c4ccc(C)cc4)nnn3c3ccsc23)cc1`, the “activity change, positive = activation” value is inactive: -20.6%. Take `Cc1ccc(S(=O)(=O)c2nnn3c2nc(N2CCCC(C)C2)c2cc(Cl)ccc23)cc1C` (stereo not drawn): the “activity change, positive = activation” value is inactive: 2.54%.

Turning to `Oc1c(C(c2ccccc2Cl)N2CCC(O)CC2)sc2nc(-c3ccco3)nn12` (stereo not drawn), the “activity change, positive = activation” value was inactive: -5.46%. As to `CCN(C(=O)Cn1cc(S(=O)(=O)N2CCN(c3ccccc3F)CC2)c2ccccc2c1=O)c1ccc(C)c(C)c1`, the “activity change, positive = activation” value was inactive: -15.6%. The value for `Cc1ccc(NC(=O)Cn2c(=O)n(-c3ccccc3)c(=O)c3ccc(C(=O)NCc4ccc5c(c4)OCO5)cc32)cc1` was inactive: -22.5%.

In the case of `Cc1ccc2oc(C(=O)Nc3ccc(S(=O)(=O)N4CCCCCC4)cc3)cc(=O)c2c1`, the activity change, positive = activation is inactive: 7.65% [at 11.5 µM, percent change from vehicle, -100% = no light]. For the molecule `CCc1ccc(NC(=O)c2sc(-n3nc(C)c(Cc4ccc5c(c4)OCO5)c3C)nc2C)cc1`, the “activity change, positive = activation” value was inactive: -10.3%. In the case of `CCOc1ccccc1NC(=O)Cn1c(=O)n(-c2ccc(C)c(C)c2)c(=O)c2oc3ccccc3c21`, the “activity change, positive = activation” value is inactive: -2.8%. For `O=C(Oc1ccccc1F)c1nc(SCc2ccccc2F)ncc1Cl` the value was inactive: -12.2%; for `COc1ccccc1NC(=O)Cn1nc2c3cc(F)ccc3n(Cc3cccc(C)c3)cc-2c1=O`, inactive: -9.87%; for `CC(C)Cn1cnc2c(N)nc3ccccc3c21`, “inactive”. The value for `CCOC(=O)c1ccc(Oc2nc(C)nc3c2oc2ccccc23)cc1` was inactive: -18.6%. For `O=C(/C=C/c1ccccc1)Nc1nc2n(n1)C(c1ccc(Cl)cc1)C=C(c1ccccc1)N2` (stereo not drawn) the value was inactive: -17.8%; for `Cc1nnsc1C(=O)Oc1ccc(C#N)cc1`, inactive: -5.34%; for `O=C(CN1C(=O)C2(SCC(=O)N2c2cccc(F)c2)c2ccccc21)NCc1ccccc1Cl` (stereo not drawn), inactive: -15.5%. Regarding `Clc1ccc(CN2CCc3nc(N4CCN(c5ccccn5)CC4)ncc3C2)cc1`, the “activity change, positive = activation” value is inactive: -30.2%. The value for `CCc1nc2ccccc2n1CCCCOc1cccc(C)c1` was inactive: -28.7%; that for `CCOC(=O)c1cc(-c2ccccc2)n(CCCC(=O)Nc2cccc(C)c2)c1C` was inactive: -21.7%. On to `CC(C)(C)c1ccc(S(=O)(=O)c2cnc(SCC(=O)Nc3ccc4c(c3)OCCO4)[nH]c2=O)cc1`, for which the “activity change, positive = activation” value was inactive: -2.78%. The value for `CC(C)CC(=O)NCC(c1ccc2c(c1)OCO2)N1CCN(c2ccc(F)cc2)CC1` (stereo not drawn) was inactive: -8.61%; that for `Cc1nnc2c3ccccc3nc(Nc3ccccc3C(=O)O)n12` was inactive: -19.3%; that for `Cc1ccc(NCc2cc3cc4c(cc3n(CC(=O)Nc3ccc(F)cc3F)c2=O)OCCO4)cc1` was inactive: -3.02%. For `CCn1ccc2cc(S(=O)(=O)N3CCC(C(=O)NCC(C)c4ccccc4)CC3)ccc21` (stereo not drawn) the value was inactive: -15.9%. `CCOc1ccc(S(=O)(=O)NCc2ccc3c(c2)CCN3C(=O)c2ccc(C)cc2)cc1`: the “activity change, positive = activation” value was inactive: -41.9%. Regarding `O=C(COc1ccc(Cl)cc1)Nc1ccc2nc(SCC(=O)N3CCOCC3)sc2c1`, the “activity change, positive = activation” value is inactive: -28.5%. With `Cc1ccc(Cl)cc1NC(=O)c1nnn(Cc2ccccc2)c1N`, the “activity change, positive = activation” value was inactive: -27.5%.

For the molecule `COc1cccc(CNC(=O)C2CCN(Cc3cc4ccccc4n3Cc3ccccc3)CC2)c1OC`, the “activity change, positive = activation” value is inactive: -20.8%.

`Cc1ccc(-n2ncc(C(=O)NCc3ccccn3)c2C2CCN(C(=O)OC(C)(C)C)CC2)cc1C`: the “activity change, positive = activation” value was inactive: -30.3%. On to `Cc1ccc(NC(=O)CSc2nc3ccccc3nc2Cc2ccccc2)c(Cl)c1`, for which the “activity change, positive = activation” value was inactive: -7.99%. For the molecule `Cc1ccc(CN2c3ccccc3-c3nc(SCC(=O)NCCc4ccccc4)ncc3S2(=O)=O)cc1`, the “activity change, positive = activation” value was inactive: -3.43%. Consider `CCN(CC)CCNC(=O)c1ccc(-c2nc(CN3CCc4ccccc43)c(C)o2)cc1`, for which the “activity change, positive = activation” value was inactive: -26.3%. As for `CCOC(=O)c1cccc(NC(=O)CSc2cc(=O)n(C)c3ccccc23)c1`, the “activity change, positive = activation” value is inactive: -34.2%. For the molecule `O=C(Nc1ccc(C(F)(F)F)cc1)c1cc(S(=O)(=O)N2CCCc3ccccc32)ccc1F`, the “activity change, positive = activation” value is inactive: -73.5%. The value for `COc1ccc(-c2nc(CN3CCC(C(=O)NCc4ccc(C)cc4)CC3)c(C)o2)cc1OC` was inactive: -23.8%; that for `CC(=O)OCC(=O)[C@@]1(O)[C@H](OC(C)=O)C[C@H]2[C@@H]3CCC4=CC(=O)C=C[C@]4(C)[C@@]3(F)[C@@H](O)C[C@@]21C` was inactive: 0.853%. For `CC(C)(C)c1cc(C(=O)O)c(NC(=O)Nc2ccc3[nH]ncc3c2)s1` the value was inactive: 3.19%; for `CCOc1ccc(CNC(=O)CCCn2c(=O)c3cccn3c3ccccc32)cc1`, inactive: -21.1%; for `COc1ccc(CCNC(=O)C(=O)NCC(c2cccs2)S(=O)(=O)c2cccs2)cc1` (stereo not drawn), inactive: -36.5%. Regarding `COc1ccc(C(=O)n2nc(-c3cccnc3)nc2NCc2ccccc2)cc1OC`, the “activity change, positive = activation” value was inactive: 16.9%. For `CCOc1ccccc1Nc1nc2ccccc2nc1NS(=O)(=O)c1ccc(Cl)cc1` the value was inactive: -26.3%; for `COc1ccccc1CNc1ncnc2onc(-c3ccc(F)cc3)c12`, inactive: 7.57%; for `CC(=O)N1CCCc2cc(S(=O)(=O)N3CCC(C(=O)Nc4c(C)cccc4C)CC3)ccc21`, inactive: -47%.

(Values after PubChem BioAssay AID1508624 (National Center for Advancing Translational Sciences (NCATS), 2021).)
